Source: PMC12136788
The list shows a part of the results.

T1: UNK ZnF1-3 (human, UniProt Q9C0B0 31-174)
T1 sequence: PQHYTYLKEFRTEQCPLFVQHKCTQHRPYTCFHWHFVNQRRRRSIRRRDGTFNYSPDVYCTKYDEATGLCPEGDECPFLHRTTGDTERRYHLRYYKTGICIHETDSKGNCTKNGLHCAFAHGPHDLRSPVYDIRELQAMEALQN

B1: chr16:94664741:94664742:+_ENSMUSG00000040785_ENSMUST00000117648|mus_hu|mus_mus_mus_hu_False|8_48 (ssRNA)
RNA: GGGAGUUCUACAGUCCGACGAUCUGGUACUGAUCUUGGUAGCUGAUAUUCAGGAGAAAGGCUGGCCAAGGGUGUAUAUAUGCUGGUGAACUGCGACAAACCUGGUAACACGUUUAUGUAUGCUGGCCGCUGGGUGAUGAUAUCCAACAGAGGAUUGAGCAUCA
B2: chr14:78894897:78894898:-_ENSMUSG00000022016_ENSMUST00000123853|mus_mus|motif|central (ssRNA)
RNA: GGGAGUUCUACAGUCCGACGAUCAUUUAAUGUUAAUAGUGGUUUUCUAACUAAGAAAACACUAAAGUAAAAGAAUAAACGGGUGGGAAGGUUAAAGUUUAUCCUCUCACGCACGCGCACACACACACACACACACAUUCUCUCCAACAGAGGAUUGAGCAUCA
B3: chr1:230810825:230810826:+_ENSG00000135775_ENST00000366669|hu_mus|FALSE|FALSE (ssRNA)
RNA: GGGAGUUCUACAGUCCGACGAUCUUUCUGGUGAAAGGCGUCUGGGUCCCCAGGGUUGAAGAGCGAGGGUAGCUUUUCCUCUAGGCCUCGAACUAUUUCUGGCCACACAGAAUUCACCAAGAAAUCAUAGCCAGGAACGAUAGUCAACAGAGGAUUGAGCAUCA
B4: chr17:42882304:42882305:-_ENSG00000182963_ENST00000426548|hu_mus|FALSE|FALSE (ssRNA)
RNA: GGGAGUUCUACAGUCCGACGAUCCUUGUAGGCAAUCUUAGCAUUGGACAGCUCAGUGUACUGGAUCUGAUCUGGUUUGACAGCAAUGUUAUAGCCAGGGGGAGCAGAGGGUGUGUUCCAAGUGAAAGGAUAAUUAUAAGCACCCAACAGAGGAUUGAGCAUCA
B5: 123077761_123079139_649_CDS_ENSMUSG00000028114_ENSMUST00000029759|mouse|control|control (ssRNA)
RNA: GGGAGUUCUACAGUCCGACGAUCCAAUUCUCUGAUGUCAAAGGCUUCUAUGUCUGCUUGUAAGUACAUGGGAGGAGUGUUUGACUUAGCUAUUAACUCAUCCUUUAGUCUGAUGAGUUCCCUAAGUUUAGGGUAUUCUUCAAACAACAGAGGAUUGAGCAUCA
B6: chr13:100192284:100192285:-_ENSMUSG00000052727_ENSMUST00000064762|mus_mus|motif|central (ssRNA)
RNA: GGGAGUUCUACAGUCCGACGAUCUGGUAAAAUUUCCAUUAGCAAAUGAUUAAAUUUAUAAAACGAGUAUUAGAAAGCUCCGGAAUUUCAUAAGCUAUUGGAAACACUUAAAACAUUCAUAUACACUGGGGAAACCAUUCACUACAACAGAGGAUUGAGCAUCA
B7: chrX:112058718:112058719:-_ENSG00000126016_ENST00000371959|hu_hu|FALSE|FALSE (ssRNA)
RNA: GGGAGUUCUACAGUCCGACGAUCAACCAUCUGCUGGGCUCUGGAAACAAUGGCAAAAGGGUCUGCUGGCACUGGCUGAUAAGAAGCAGAGGAUGGCUGAGCCCGAGGCAUAGCUGAAUAGGCUUCUCCUGGCUGCUGCUGUGGCAACAGAGGAUUGAGCAUCA
B8: chr2:90693216:90693217:+_ENSMUSG00000027282_ENSMUST00000136872|mus_hu|motif|central (ssRNA)
RNA: GGGAGUUCUACAGUCCGACGAUCCUCCUUGAUAACGUGGUCAAAGGAAGAUGAGACUUCUUUCUGUACAUUUCCAGGUCCGGACUCCUGUAAAACUUUACCAUGGACCACAGUUCCAAGGACUCCCGAACACAGUCUUGGAGUCAACAGAGGAUUGAGCAUCA
B9: 123022165_123022285_73_3pUTR_ENSMUSG00000025786_ENSMUST00000026892|mouse|control|control (ssRNA)
RNA: GGGAGUUCUACAGUCCGACGAUCCCCAGCCGCCAGCGUCCGCGAUGGCACGGGCACCCGGCGCCACGGCUUGCCGGACUCGGCCUCACACGGGGCGGUGCGAAGGAGAAGCCCAUGGAGCUCCAGGCGGUGGCGGCAGCCGCGCAACAGAGGAUUGAGCAUCA
B10: chr6:29491266:29491267:-_ENSMUSG00000012535_ENSMUST00000012679|mus_mus|motif|central (ssRNA)
RNA: GGGAGUUCUACAGUCCGACGAUCGGGUUGGGCUCUACAUUAAAAGCAACUUUGACCCUGGCUAGUCCGGACUAUCAUCCCGGACCAUGAUAUAAGCAGACCAGGCUCCUUGUCUGGACAUUUCUAAAGGUGAACAGUUGGGGGCAACAGAGGAUUGAGCAUCA
B11: chr2:68236527:68236528:-_ENSMUSG00000027030_ENSMUST00000102715|mus_hu|FALSE|FALSE (ssRNA)
RNA: GGGAGUUCUACAGUCCGACGAUCCAUUGAACCUCCACUUAGUAAUUUCAUGACCAGCCAAAGUUCAUCUUUGACCACAAAAGAGGUGUAAUAGGUCACUACGUUGGGAUGGCUGCACUGACUCAUGGCUUGAAUUUCUUUUAACAACAGAGGAUUGAGCAUCA
B12: chr11:122931392:122931393:-_ENSG00000109971_ENST00000227378|hu_hu|FALSE|FALSE (ssRNA)
RNA: GGGAGUUCUACAGUCCGACGAUCUGUCAGAACCAUAGAAGACACCUCCUCUGGAUAGAAGCUUUUGGUCUCUCCCUUGUAUUCUACUUGGACCUUGGGCCUGCCAGCAUCAUUCACCACCAUAAAGGGCCAAUGUUUCAUAUCCAACAGAGGAUUGAGCAUCA
B13: 49671451_49671571_1540_CDS_ENSG00000102935_ENST00000562871|human|control|control (ssRNA)
RNA: GGGAGUUCUACAGUCCGACGAUCCUGGAUGUGCUCGGUGAGGGAGGACUCAGUAAGGAAACCCAUGGAGCACUGGUUGCAGAAGAAAGCAUUAUUACCGUCAGAGGGGUUGGCGUUGGGGCCGCAGUGGGAGACGCGGAUGUGCAACAGAGGAUUGAGCAUCA
B14: chr8:63386198:63386199:+_ENSMUSG00000038005_ENSMUST00000037190|mus_mus|FALSE|FALSE (ssRNA)
RNA: GGGAGUUCUACAGUCCGACGAUCGGUCCCACUUCAAAGCACUGCACUAACAGGGCAGCUUGUUCAUCCUGCAAGCUGGUCUAUGUUCUCUUCACUUCUGCUUGCCAGAUGAUCUUCAAUAAUUUUUGCAAACAGAUCCCUCUUCAACAGAGGAUUGAGCAUCA
B15: chrX:153986339:153986340:-_ENSMUSG00000046873_ENSMUST00000058098|mus_hu|FALSE|FALSE (ssRNA)
RNA: GGGAGUUCUACAGUCCGACGAUCAGGGACACAAAGACCCUCCAAGUUAUUUUUUUAUGUGAACAUAUAUUUACAGUAAAUAUUCAAUAAUACUUUUUACAGCUUACUUAAAUAGAAACAUGCUUUUUCUAAUCCAUAAAUAACCAACAGAGGAUUGAGCAUCA
B16: chr11:74329583:74329584:+_ENSG00000077514_ENST00000263681|hu_hu|FALSE|FALSE (ssRNA)
RNA: GGGAGUUCUACAGUCCGACGAUCAGACGAAGAGGAUUCAGCAGGAGCUCUAGGGACGGCAGCUGCACAUUGUAUAGCACUAAAUUUGCUGCAGUUCUGCAAGUUGCUUUUAAGGAUGUCAUAGUCAGUAUUGAACAGAGGCCCCAACAGAGGAUUGAGCAUCA
B17: chr12:103220247:103220248:+_ENSMUSG00000041781_ENSMUST00000047357|mus_hu|motif|central (ssRNA)
RNA: GGGAGUUCUACAGUCCGACGAUCCAGGGAAUCAAUAAUAUCCAUAGAAAAGUGCUCAUCCCAGCCACAGUCCAAUAAAAAUCGGAACUCAUCAACUUGGAGAAGAUAGCAAAGGGCAGAUUCUUCUUGGACCCCAGAAAGGGUCAACAGAGGAUUGAGCAUCA
B18: chr16:45382771:45382772:-_ENSMUSG00000022661_ENSMUST00000163230|mus_mus|mus_mus_mus_hu_True|1_108 (ssRNA)
RNA: GGGAGUUCUACAGUCCGACGAUCCUGAGUGUUAUUGUAAGACAAAUGGACAGGGAGGGCAUGCUUCUCAAAAAAUGUGAGCUAUUGUCUAAGACUAACAAUAUUUAUCUAGCUAUAAAAAUAAGUUAAAUGAAUAAACAUUACCAACAGAGGAUUGAGCAUCA
B19: chr7:54825262:54825263:-_ENSG00000132432_ENST00000352861|hu_hu|hu_hu_hu_mus_False|68_88 (ssRNA)
RNA: GGGAGUUCUACAGUCCGACGAUCCUGCCGGCUGGGCUCCACAAACUUUACCUGAUCAUCCAUGUUUUACCCAACCGGGAUUGAGAGCGUAGAGACACGUAGCUCAGGAGAGAACCGAGCCCAACGGAACCGGAAGCUGGCAACCAACAGAGGAUUGAGCAUCA
B20: chr4:25749455:25749456:-_ENSG00000091490_ENST00000264868|hu_hu|hu_hu_hu_mus_False|28_68 (ssRNA)
RNA: GGGAGUUCUACAGUCCGACGAUCGCACUAUGACCUCUAGAAAAAUCCACAGGGGGAAAAAAUGUAAACCAAUUUACAAUGUUAUCGCCUUCCCUGUGUGUGGAGUGACAAACAAUUGGCUCCUUCUAGCUGCUGGAUUUGGGACAACAGAGGAUUGAGCAUCA
B21: chrX:71549400:71549401:+_ENSMUSG00000019087_ENSMUST00000019231|mus_hu|mus_mus_mus_hu_False|48_78 (ssRNA)
RNA: GGGAGUUCUACAGUCCGACGAUCGCAGUAGGAAGAGGGAAGCUCUUCAGUCCAGUGGUCACAAAACUGGGAAAGCAACAACACGGAACCAAUACUCCCCUCAACCCCCCCACUGGCACAGGGUCACACAAUCUGGGUCAAAGACAACAGAGGAUUGAGCAUCA
B22: 100042488_100045678_4628_CDS_ENSMUSG00000023026_ENSMUST00000100203|mouse|control|control (ssRNA)
RNA: GGGAGUUCUACAGUCCGACGAUCCAGGGCUUCCUGUUCAGAGCCGCAUAGUUCCACAACGACCACCAGCAAGUUGGUCCACGUGAACACAGCACAUUCAGCAAUGCUCCUGUGGACGCGGGACACGGAGGUCUCUAUAUCGAUCAACAGAGGAUUGAGCAUCA

target: T1, UNK ZnF1-3; assay: nsRBNS (natural sequence RNA bind-n-seq); RBNS binding buffer (assumed for nsRBNS): 25 mM Tris pH 7.5, 150 mM KCl, 3 mM MgCl2, 0.01% Triton X-100, 500 ug/ml BSA, 20 U/ml SUPERase-In, 4 C; UNK is unkempt and MSI1 is Musashi-1; names of the RNAs are library labels; protein concentration not given here; high values mean tight binding

Binder	binding signal
B1	1.12 enrichment R
B2	0.999 enrichment R
B3	0.872 enrichment R
B4	1.1 enrichment R
B5	0.626 enrichment R
B6	2.32 enrichment R
B7	1.68 enrichment R
B8	0.748 enrichment R
B9	0.656 enrichment R
B10	1.43 enrichment R
B11	0.891 enrichment R
B12	1.16 enrichment R
B13	2.33 enrichment R
B14	0.845 enrichment R
B15	0.28 enrichment R
B16	1.58 enrichment R
B17	1.62 enrichment R
B18	1.79 enrichment R
B19	1.11 enrichment R
B20	0.989 enrichment R
B21	2.34 enrichment R
B22	0.446 enrichment R
